PMC4786772, “Manipulation of prenylation reactions by structure-based engineering of bacterial indolactam prenyltransferases” (Nature Communications, 2016)

Biological target: TleC (Streptomyces blastmyceticus, UniProt A0A077K887)
Details: with (−)-indolactam V, 37 °C, 18 h

## CC(C)=CCC/C(C)=C/CC/C(C)=C/COP(=O)(O)OP(=O)(O)O [FPP]
  HPLC / LC-MS product formation: both TleC and MpnD also accepted farnesyl pyrophosphate (FPP) (C15)
